Source: article PMC5829230, “G-protein βγ subunits determine grain size through interaction with MADS-domain transcription factors in rice”
No constants are given. Whether binding was seen depends on the method and setting. For part of these data: Binding seen in cells or lysates may run through a third protein. Some binding calls cover weakened binding; strength is not graded here. For part of these data: Sequences can lack the tags named with a protein. Each block holds one molecule with its values, some of them ahead of it.

Protein sequences, listed by entry. Tags and fused reporters are not part of them. Lines headed by an entry give the natural chain unless they say otherwise; changes in a name come on top.
UniProt Q10PZ9: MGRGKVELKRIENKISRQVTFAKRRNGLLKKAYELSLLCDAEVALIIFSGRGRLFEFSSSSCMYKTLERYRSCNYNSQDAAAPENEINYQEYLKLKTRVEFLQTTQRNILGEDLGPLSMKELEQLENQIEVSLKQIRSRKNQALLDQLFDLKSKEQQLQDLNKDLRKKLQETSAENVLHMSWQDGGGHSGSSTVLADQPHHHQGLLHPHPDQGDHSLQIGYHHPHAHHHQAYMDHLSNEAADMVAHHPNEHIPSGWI

Experiments:
[1] = biological target: T1, nLUC-tagged RGA1, rice Gα subunit (rice) (UniProt Q0DJ33); assay: split reporter; split firefly luciferase complementation (SFLC): nLUC and cLUC fusions with the p19 silencing plasmid co-transfected into N. benthamiana leaves by Agrobacterium infiltration; leaves detached after 36-48 h, sprayed with 1 mM luciferin, LUC signal by cooled CCD
T1 sequence: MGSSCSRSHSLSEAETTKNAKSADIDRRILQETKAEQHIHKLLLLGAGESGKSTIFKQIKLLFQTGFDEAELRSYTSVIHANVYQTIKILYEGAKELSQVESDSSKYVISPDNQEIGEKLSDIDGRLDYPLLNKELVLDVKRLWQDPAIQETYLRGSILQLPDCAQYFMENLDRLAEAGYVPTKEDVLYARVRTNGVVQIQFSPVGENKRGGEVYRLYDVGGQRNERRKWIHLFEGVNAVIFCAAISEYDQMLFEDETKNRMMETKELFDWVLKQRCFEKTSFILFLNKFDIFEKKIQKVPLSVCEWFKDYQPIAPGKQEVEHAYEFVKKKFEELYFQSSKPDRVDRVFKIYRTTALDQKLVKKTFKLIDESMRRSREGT

[2] = biological target: T2, nLUC-tagged RGB1, rice Gβ subunit (rice) (UniProt Q40687); assay: as above
T2 sequence: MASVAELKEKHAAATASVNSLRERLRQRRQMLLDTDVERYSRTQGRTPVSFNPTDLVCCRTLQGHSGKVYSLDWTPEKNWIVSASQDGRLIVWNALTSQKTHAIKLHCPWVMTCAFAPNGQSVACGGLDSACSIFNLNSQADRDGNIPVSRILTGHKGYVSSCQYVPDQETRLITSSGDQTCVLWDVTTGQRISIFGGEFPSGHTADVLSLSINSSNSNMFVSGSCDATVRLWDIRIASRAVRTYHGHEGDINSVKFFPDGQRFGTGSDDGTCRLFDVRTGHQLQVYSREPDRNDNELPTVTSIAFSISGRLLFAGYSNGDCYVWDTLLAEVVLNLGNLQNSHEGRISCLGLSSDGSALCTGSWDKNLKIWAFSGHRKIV

nLUC-tagged DEP1 (rice) = biological target: T3, nLUC-tagged DEP1 (rice) (UniProt Q67UU9); assay: as above
T3 sequence: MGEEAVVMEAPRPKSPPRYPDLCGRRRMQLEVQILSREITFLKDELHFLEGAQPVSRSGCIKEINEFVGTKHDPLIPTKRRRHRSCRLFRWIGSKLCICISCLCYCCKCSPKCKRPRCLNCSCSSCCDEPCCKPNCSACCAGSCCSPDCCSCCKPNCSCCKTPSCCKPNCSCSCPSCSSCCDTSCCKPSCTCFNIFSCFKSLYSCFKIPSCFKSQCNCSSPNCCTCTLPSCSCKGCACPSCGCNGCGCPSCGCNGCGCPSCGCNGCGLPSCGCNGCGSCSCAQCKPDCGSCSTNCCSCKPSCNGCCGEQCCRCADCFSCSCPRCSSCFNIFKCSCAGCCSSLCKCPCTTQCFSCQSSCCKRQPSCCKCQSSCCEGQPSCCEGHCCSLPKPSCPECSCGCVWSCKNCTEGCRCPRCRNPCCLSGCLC

[3] = biological target: T4, nLUC-tagged RGG2, rice canonical Gγ subunit (rice) (UniProt Q6YXX9); assay: as above
T4 sequence: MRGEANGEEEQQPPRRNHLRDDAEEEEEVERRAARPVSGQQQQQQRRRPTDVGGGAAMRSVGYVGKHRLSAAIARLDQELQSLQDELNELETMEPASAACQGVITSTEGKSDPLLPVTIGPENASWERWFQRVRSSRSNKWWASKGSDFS

[4] = biological target: T5, nLUC-tagged RGG1, rice canonical Gγ subunit (rice) (UniProt Q75WU1); assay: as above
T5 sequence: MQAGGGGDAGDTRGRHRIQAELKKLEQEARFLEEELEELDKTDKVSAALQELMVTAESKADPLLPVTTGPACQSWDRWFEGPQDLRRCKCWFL

Flag-DEP1 (rice) = biological target: T6, Flag-DEP1 (rice) (UniProt Q67UU9); assay: co-IP; Flag- and HA-tagged proteins in transfected A. thaliana protoplasts; lysate in 50 mM HEPES pH 7.5, 150 mM KCl, 1 mM EDTA, 0.5% Triton X-100, 1 mM DTT; Flag M2 Affinity Gel at 4 °C, eluted with 3x Flag peptide, blot with anti-HA
T6 sequence: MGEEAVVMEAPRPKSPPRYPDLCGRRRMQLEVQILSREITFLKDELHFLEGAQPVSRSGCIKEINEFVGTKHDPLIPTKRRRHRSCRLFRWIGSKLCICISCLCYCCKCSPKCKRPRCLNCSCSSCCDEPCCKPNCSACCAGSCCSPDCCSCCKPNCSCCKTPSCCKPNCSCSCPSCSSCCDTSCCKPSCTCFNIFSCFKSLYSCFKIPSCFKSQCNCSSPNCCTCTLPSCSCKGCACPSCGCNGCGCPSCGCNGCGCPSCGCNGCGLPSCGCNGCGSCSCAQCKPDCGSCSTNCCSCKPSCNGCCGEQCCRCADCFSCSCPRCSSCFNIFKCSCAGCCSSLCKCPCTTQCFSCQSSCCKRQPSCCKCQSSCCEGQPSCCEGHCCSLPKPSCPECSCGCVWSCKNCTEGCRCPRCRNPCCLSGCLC

[5] = biological target: T7, DEP1 (DENSE AND ERECT PANICLE1), rice G-protein γ subunit, in pGBKT7 (rice) (UniProt Q67UU9); assay: two-hybrid; DEP1 or dep1-1 in pGBKT7, OsMADS1 in pGADT7, yeast strain AH109, β-galactosidase assays; dep1-1 also used as bait to screen a cDNA library of young panicles
T7 sequence: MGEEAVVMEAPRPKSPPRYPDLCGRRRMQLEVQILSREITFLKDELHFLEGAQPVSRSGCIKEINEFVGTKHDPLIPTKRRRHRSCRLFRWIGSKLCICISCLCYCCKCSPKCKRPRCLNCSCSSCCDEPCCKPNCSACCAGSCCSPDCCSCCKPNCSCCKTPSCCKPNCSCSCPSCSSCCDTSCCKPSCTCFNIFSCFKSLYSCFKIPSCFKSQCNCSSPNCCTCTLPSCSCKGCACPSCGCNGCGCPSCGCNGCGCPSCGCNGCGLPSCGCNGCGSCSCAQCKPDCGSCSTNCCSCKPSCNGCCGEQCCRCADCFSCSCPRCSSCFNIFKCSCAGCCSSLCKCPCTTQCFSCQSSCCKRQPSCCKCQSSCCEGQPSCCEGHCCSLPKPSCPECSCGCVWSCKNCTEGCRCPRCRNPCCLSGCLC

cLUC-DEP1 (rice) = biological target: T8, cLUC-DEP1 (rice) (UniProt Q67UU9); assay: split reporter; split firefly luciferase complementation (SFLC): nLUC and cLUC fusions with the p19 silencing plasmid co-transfected into N. benthamiana leaves by Agrobacterium infiltration; leaves detached after 36-48 h, sprayed with 1 mM luciferin, LUC signal by cooled CCD
T8 sequence: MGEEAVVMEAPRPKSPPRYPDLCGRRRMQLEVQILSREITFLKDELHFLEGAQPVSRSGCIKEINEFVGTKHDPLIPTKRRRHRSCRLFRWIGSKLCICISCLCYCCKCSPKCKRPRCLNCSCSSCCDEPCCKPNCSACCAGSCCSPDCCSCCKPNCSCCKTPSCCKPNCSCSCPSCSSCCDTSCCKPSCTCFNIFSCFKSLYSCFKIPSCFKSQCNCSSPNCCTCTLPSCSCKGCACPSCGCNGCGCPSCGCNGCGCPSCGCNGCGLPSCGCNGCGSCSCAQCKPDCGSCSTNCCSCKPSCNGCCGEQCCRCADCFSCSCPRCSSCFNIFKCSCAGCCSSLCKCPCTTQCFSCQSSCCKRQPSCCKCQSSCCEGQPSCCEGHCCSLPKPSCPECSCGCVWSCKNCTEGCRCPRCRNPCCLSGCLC

[6] = biological target: T9, rice DELLA protein SLR1 (positive control of the SFLC assay) (rice) (UniProt Q7G7J6); assay: as above
T9 sequence: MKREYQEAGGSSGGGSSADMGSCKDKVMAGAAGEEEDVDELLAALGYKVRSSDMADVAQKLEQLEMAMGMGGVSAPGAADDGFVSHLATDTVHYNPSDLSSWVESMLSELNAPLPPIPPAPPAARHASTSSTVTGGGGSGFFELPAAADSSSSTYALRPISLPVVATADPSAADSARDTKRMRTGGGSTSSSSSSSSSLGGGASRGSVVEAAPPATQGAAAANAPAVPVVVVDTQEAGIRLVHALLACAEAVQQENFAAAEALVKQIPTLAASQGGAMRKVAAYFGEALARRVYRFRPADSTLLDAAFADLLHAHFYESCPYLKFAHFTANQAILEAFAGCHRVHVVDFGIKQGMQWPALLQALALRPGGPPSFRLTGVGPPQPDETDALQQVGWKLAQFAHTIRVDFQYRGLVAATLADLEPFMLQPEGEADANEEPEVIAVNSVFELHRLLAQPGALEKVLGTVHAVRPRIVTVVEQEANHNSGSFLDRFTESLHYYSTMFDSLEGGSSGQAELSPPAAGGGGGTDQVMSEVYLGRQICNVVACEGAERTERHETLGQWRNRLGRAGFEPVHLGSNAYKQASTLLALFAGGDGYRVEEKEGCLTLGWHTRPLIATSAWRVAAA

Molecule: HA-OsMADS1 (from UniProt Q10PZ9 1-257)
binding (Flag-DEP1 (rice)): binds

Molecule: OsMADS1 (LGY3), MADS-domain transcription factor, in pGADT7 (from UniProt Q10PZ9 1-257)
binding [5]: binds

Molecule: nLUC-tagged OsMADS1 (non-deleted version) (from UniProt Q10PZ9 1-257)
binding (cLUC-DEP1 (rice)): binds

Next, values leading:

binding [1]: no binding
binding [2]: binds
binding (nLUC-tagged DEP1 (rice)): binds
binding [3]: binds
binding [4]: binds
Molecule: cLUC-targeted OsMADS1 (from UniProt Q10PZ9 1-257)

binding [6]: binds
B1: rice GA receptor GID1 (positive control of the SFLC assay) (receptor, UniProt Q6L545 1-354)
chain: MAGSDEVNRNECKTVVPLHTWVLISNFKLSYNILRRADGTFERDLGEYLDRRVPANARPLEGVSSFDHIIDQSVGLEVRIYRAAAEGDAEEGAAAVTRPILEFLTDAPAAEPFPVIIFFHGGSFVHSSASSTIYDSLCRRFVKLSKGVVVSVNYRRAPEHRYPCAYDDGWTALKWVMSQPFMRSGGDAQARVFLSGDSSGGNIAHHVAVRAADEGVKVCGNILLNAMFGGTERTESERRLDGKYFVTLQDRDWYWKAYLPEDADRDHPACNPFGPNGRRLGGLPFAKSLIIVSGLDLTCDRQLAYADALREDGHHVKVVQCENATVGFYLLPNTVHYHEVMEEISDFLNANLYY
